In article PMC9911399, “Two distinct binding modes provide the RNA-binding protein RbFox with extraordinary sequence specificity” one finds binding signal data, which are given here for 20 molecules.

First the molecules themselves.
T1: RBFOX1 RRM (Homo sapiens, UniProt Q9NWB1 109-208)
T1 sequence: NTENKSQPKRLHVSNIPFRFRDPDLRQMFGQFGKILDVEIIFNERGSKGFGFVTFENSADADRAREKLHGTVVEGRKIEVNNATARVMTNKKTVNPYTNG

B1: GAAAGGC (DNA:RNA)
RNA: GGGAGACCGGAAUUCAGAUUGUCCGAAAGGCUUAAAUCCCGUCGUAGCCACCA
DNA 1: CAATCTGAATTCCGGTCTCCC
DNA 2: TGGTGGCTACGACGGGATT
B2: CGGUGCU (DNA:RNA)
RNA: B1 RNA with G25C, A26G, A27G, A28U, G30C, C31U
DNA 1: CAATCTGAATTCCGGTCTCCC
DNA 2: TGGTGGCTACGACGGGATT
B3: UUCAUCU (DNA:RNA)
RNA: B1 RNA with G25U, A26U, A27C, G29U, G30C, C31U
DNA 1: CAATCTGAATTCCGGTCTCCC
DNA 2: TGGTGGCTACGACGGGATT
B4: UGUACCA (DNA:RNA)
RNA: B1 RNA with G25U, A26G, A27U, G29C, G30C, C31A
DNA 1: CAATCTGAATTCCGGTCTCCC
DNA 2: TGGTGGCTACGACGGGATT
B5: CUCUAUC (DNA:RNA)
RNA: B1 RNA with G25C, A26U, A27C, A28U, G29A, G30U
DNA 1: CAATCTGAATTCCGGTCTCCC
DNA 2: TGGTGGCTACGACGGGATT
B6: GCUGUGU (DNA:RNA)
RNA: B1 RNA with A26C, A27U, A28G, G29U, C31U
DNA 1: CAATCTGAATTCCGGTCTCCC
DNA 2: TGGTGGCTACGACGGGATT
B7: AAUCAGU (DNA:RNA)
RNA: B1 RNA with G25A, A27U, A28C, G29A, C31U
DNA 1: CAATCTGAATTCCGGTCTCCC
DNA 2: TGGTGGCTACGACGGGATT
B8: GGCAGGA (DNA:RNA)
RNA: B1 RNA with A26G, A27C, C31A
DNA 1: CAATCTGAATTCCGGTCTCCC
DNA 2: TGGTGGCTACGACGGGATT
B9: UCCCGGC (DNA:RNA)
RNA: B1 RNA with G25U, A26C, A27C, A28C
DNA 1: CAATCTGAATTCCGGTCTCCC
DNA 2: TGGTGGCTACGACGGGATT
B10: AUUGACU (DNA:RNA)
RNA: GGGAGACCGGAAUUCAGAUUGUCCAUUGACUUUAAAUCCCGUCGUAGCCACCA
DNA 1: CAATCTGAATTCCGGTCTCCC
DNA 2: TGGTGGCTACGACGGGATT
B11: GUUAAGG (DNA:RNA)
RNA: B10 RNA with A25G, G28A, C30G, U31G
DNA 1: CAATCTGAATTCCGGTCTCCC
DNA 2: TGGTGGCTACGACGGGATT
B12: AGGUGUA (DNA:RNA)
RNA: B10 RNA with U26G, U27G, G28U, A29G, C30U, U31A
DNA 1: CAATCTGAATTCCGGTCTCCC
DNA 2: TGGTGGCTACGACGGGATT
B13: GAAUAUU (DNA:RNA)
RNA: B1 RNA with A28U, G29A, G30U, C31U
DNA 1: CAATCTGAATTCCGGTCTCCC
DNA 2: TGGTGGCTACGACGGGATT
B14: CCUGCGC (DNA:RNA)
RNA: B10 RNA with A25C, U26C, A29C, C30G, U31C
DNA 1: CAATCTGAATTCCGGTCTCCC
DNA 2: TGGTGGCTACGACGGGATT
B15: GGUUCCA (DNA:RNA)
RNA: B10 RNA with A25G, U26G, G28U, A29C, U31A
DNA 1: CAATCTGAATTCCGGTCTCCC
DNA 2: TGGTGGCTACGACGGGATT
B16: GCGUUGG (DNA:RNA)
RNA: B1 RNA with A26C, A27G, A28U, G29U, C31G
DNA 1: CAATCTGAATTCCGGTCTCCC
DNA 2: TGGTGGCTACGACGGGATT
B17: CACUCGG (DNA:RNA)
RNA: B1 RNA with G25C, A27C, A28U, G29C, C31G
DNA 1: CAATCTGAATTCCGGTCTCCC
DNA 2: TGGTGGCTACGACGGGATT
B18: GAAUGUC (DNA:RNA)
RNA: B1 RNA with A28U, G30U
DNA 1: CAATCTGAATTCCGGTCTCCC
DNA 2: TGGTGGCTACGACGGGATT
B19: GAUUCCC (DNA:RNA)
RNA: B1 RNA with A27U, A28U, G29C, G30C
DNA 1: CAATCTGAATTCCGGTCTCCC
DNA 2: TGGTGGCTACGACGGGATT
B20: CCCGAUU (DNA:RNA)
RNA: B10 RNA with A25C, U26C, U27C, C30U
DNA 1: CAATCTGAATTCCGGTCTCCC
DNA 2: TGGTGGCTACGACGGGATT

Positions count from the first letter of the chain named. This is one part of the list.

This experiment addresses T1, RBFOX1 RRM. The experiment in a line: EMSA; HiTS-Eq, 1 nM pool, 10 min; buffer printed only for the single-RNA assays: 10 mM Tris pH 7.5, 150 mM NaCl, 3.4 mM EDTA, 0.001% NP-40, 30 C. The following applies: tags: His6 N-terminal (pET28a); label: 5' 32P. The gist of the method: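 Purified wild-type or mutant RbFox RRM at increasing concentrations was equilibrated with 1 nM of 5′-radiolabelled RNA carrying 7 randomized nucleotides for 10 min in 50 µL. Unbound RNA was separated by 8% native PAGE and sequenced. Relative association constants came from read-count changes of each RNA species compared with the control reaction, normalised to the cognate motif.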
In general terms: A gel shift assay detects complexes by their altered migration in electrophoresis.
Take B1: the binding signal is 0.00662 KA relative to UGCAUGU.
With B2, the binding signal is 0.0158 KA relative to UGCAUGU.
Turning to B3, the binding signal is 0.00163 KA relative to UGCAUGU.
With B4, the binding signal was 0.00834 KA relative to UGCAUGU.
With B5, the binding signal is 0.00383 KA relative to UGCAUGU.
Consider B6, for which the binding signal was 0.0228 KA relative to UGCAUGU.
On to B7, for which the binding signal is 0.00628 KA relative to UGCAUGU.
Then B8, with 0.00916 KA relative to UGCAUGU; and B9, with 0.00242 KA relative to UGCAUGU; and B10, with 0.00733 KA relative to UGCAUGU.
As to B11, the binding signal is 0.00813 KA relative to UGCAUGU.
With B12, the binding signal was 0.00981 KA relative to UGCAUGU.
As to B13, the binding signal is 0.00452 KA relative to UGCAUGU.
In the case of B14, the binding signal is 0.0134 KA relative to UGCAUGU.
As to B15, the binding signal was 0.00477 KA relative to UGCAUGU.
As to B16, the binding signal is 0.0192 KA relative to UGCAUGU.
Take B17: the binding signal is 0.00726 KA relative to UGCAUGU.
To B18 belongs 0.0247 KA relative to UGCAUGU; to B19, 0.000323 KA relative to UGCAUGU.
B20: the binding signal was 0.00177 KA relative to UGCAUGU.
